Measured values as given in PubChem BioAssay (NCI).
Where “and” joins values, the source holds several entries; their conditions need not be identical. Equal entries are not always repeated.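 Cultured in 96-well plates, cells were exposed to test compound for 48 hours across five concentrations. At the GI50, growth is halved.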

Tested on: NCI-H322M lung
Assay: inhibition of tumour cell growth, NCI panel, 48 h

In the case of `CCC/C=C/C=C/C(=O)OC1/C(=C/C(=O)OC)CC2CC(C(C)O)OC(=O)CC(O)CC3CC(OC(C)=O)C(C)(C)C(O)(CC4C/C(=C/C(=O)OC)CC(/C=C/C(C)(C)C1(O)O2)O4)O3` (stereo unspecified), the GI50 is reported as 7.43 µM and 0.964 µM.
